# “And” between values parts separate entries of the source, which are not always exact repeats. Equal values may be shown once. The inconclusive results got no clear call from the source; some entries with a clear call stand among them for comparison. Potencies beside an inconclusive call are fits to weak or partial responses and may not hold up. The source made the active and inactive calls. The call rests on the fitted dose curve; in most records, active means well fitted cell-killing curve with a large enough effect in the repeat runs; inconclusive means weak or mixed curves, or effect the other way; inactive means flat fitted curve, though single readings scatter.
# Columns and labels:
# [1] = cAMP Responsive Elements (CRE) small molecule antagonists, cell-based qHTS assay: qHTS cell viability counter screen (AID 2060913); further: nearly all actives have a fitted effect of over 40% in size
# Summary of the method: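 Cytotoxicity counter screen multiplexed with the CRE-bla antagonist read: HEK293T cells in DMEM with dialyzed FBS and 25 mM HEPES were treated 3 hrs under 0.25 uM final NKH477, then viability measured by CellTiter-Glo luminescence.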
# [2] = cAMP Responsive Elements (CRE) small molecule agonists, cell-based qHTS assay: qHTS cell viability counter screen (AID 2060914);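 further: viability read after 3 h of compound exposure; nearly all actives have a fitted effect of over 50% in size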
# Summary of the method: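 HEK 293T CRE-bla; DMEM + 10% dialyzed FBS, 25 mM HEPES; 18 h pre-incubation; compound 3 h, 37 °C/5% CO2; CellTiter-Glo added after reporter read; luminescence after 30 min RT.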
# Potency means the concentration at half of the fitted maximal effect; tags describe the fitted curve by direction and shape.
Compound,Potency [1],Potency [2]
CC(C)OC(=O)COc1ccc(Cl)cc1Cl,"inconclusive: 2.27 µM [cytotoxic, single point]",inactive
CCCCCCCCCCCCCCCCCC[N+](C)(C)Cc1ccccc1,active: 61.7 µM,active: 55 µM
CC1=C(/C=C/C(C)=C/C=C/C(C)=C/C(=O)Nc2ccc(O)cc2)C(C)(C)CCC1,"inconclusive: 78.9 µM [cytotoxic, single point]","inconclusive: 62.7 µM [cytotoxic, single point]"
CCN(CC)c1ccc2c(-c3ccc(S(=O)(=O)O)cc3S(=O)(=O)[O-])c3ccc(=[N+](CC)CC)cc-3oc2c1,inconclusive: 28.2 µM [cytotoxic],"inconclusive: 70.7 µM [cytotoxic, partial curve]"
C[C@H](CCC(=O)O)[C@H]1CC[C@H]2[C@@H]3CC[C@@H]4C[C@H](O)CC[C@]4(C)[C@H]3C[C@H](O)[C@]12C,"inconclusive: 61.3 µM [cytotoxic, single point]",inactive
NS(=O)(=O)c1cc2c(cc1Cl)NC(C1CC3C=CC1C3)NS2(=O)=O (stereo not given),inactive,inactive
CCCCOCCOC(=O)c1ccccc1C(=O)OCCOCCCC,"inconclusive: 50.8 µM [cytotoxic, partial curve, poor fit]","inconclusive: 53.3 µM [cytotoxic, partial curve, poor fit]"
O=C(Nc1ccccc1)c1cc(Cl)ccc1O,"inconclusive: 7.7 µM [cytotoxic, full curve, poor fit]","inconclusive: 19.3 µM [cytotoxic, partial curve, poor fit]"
COC(=O)[C@H]1[C@H]2C[C@@H]3c4[nH]c5cc(OC)ccc5c4CCN3C[C@H]2C[C@@H](OC(=O)c2cc(OC)c(OC)c(OC)c2)[C@@H]1OC,"inconclusive: 26.6 µM [rising, partial curve, poor fit]","inconclusive: 0.298 µM [cytotoxic, single point]"
CNC(=O)c1ccccc1Sc1ccc2c(/C=C/c3ccccn3)n[nH]c2c1,"inconclusive: 33.5 µM [cytotoxic, single point]","inconclusive: 33.5 µM [cytotoxic, single point]"
C/C=C(/C(=C/C)c1ccc(OC(C)=O)cc1)c1ccc(OC(C)=O)cc1,"inconclusive: 23.7 µM [rising, partial curve]","inconclusive: 23.7 µM [rising, partial curve]"
CCCCCCCCCCCCCCCC[N+](C)(C)CC,active: 57.1 µM and active: 26.6 µM,active: 54.6 µM and active: 26.6 µM
CCCC[C@H]1CN(CC2CCOCC2)C(=O)OC12CCN(C1(C)CCN(C(=O)c3c(C)ncnc3C)CC1)CC2,"inconclusive: 1.26 µM [cytotoxic, single point]",inactive
O=S(=O)(O)c1ccc2nc(-c3ccccc3)[nH]c2c1,"inconclusive: 26 µM [cytotoxic, partial curve] and inconclusive: 13.3 µM [cytotoxic, partial curve, poor fit]",active: 29.1 µM and active: 21.1 µM
CCN(CC)CCOc1ccc(/C(=C(\Cl)c2ccccc2)c2ccccc2)cc1,"inconclusive: 49.6 µM [cytotoxic, single point] and inconclusive: 18.8 µM [cytotoxic, partial curve, poor fit]","inconclusive: 55.6 µM [cytotoxic, single point]"
Cc1cc(F)ccc1-c1cc(N2CC[C@@H](O)[C@H]2CO)ncc1N(C)C(=O)C(C)(C)c1cc(C(F)(F)F)cc(C(F)(F)F)c1,active: 44.6 µM,inconclusive: 53.6 µM [cytotoxic]
CCCCCN=C(N)N/N=C/c1c[nH]c2ccc(OC)cc12,active: 29.8 µM,"inconclusive: 0.473 µM [cytotoxic, full curve, poor fit]"
CCOC(=O)COc1ccc2c(c1)CC(NCC(O)c1cccc(Cl)c1)CC2 (stereo not given),"inconclusive: 61.6 µM [cytotoxic, partial curve, poor fit]",inactive
O=S1(=O)CC(Cl)(Cl)C(Cl)(Cl)C1,active: 15.4 µM,active: 34.4 µM
CCN(Cc1c(F)cccc1Cl)c1c([N+](=O)[O-])cc(C(F)(F)F)cc1[N+](=O)[O-],"inconclusive: 30.6 µM [cytotoxic, partial curve, poor fit]","inconclusive: 30.6 µM [cytotoxic, partial curve, poor fit]"

# — PubChem BioAssay (Tox21)
